Reference: PubChem BioAssay AID1508624 (National Center for Advancing Translational Sciences (NCATS), 2021)
In all, about 48,000 compounds went through this assay and about 120 (0.25%) were called active. Not shown: some 4% with an inconclusive outcome. The call rests on the fitted dose curve; in most records, active means well fitted activation curve with a large enough effect; inconclusive means small, poorly fitted or top-dose-only effect, or another doubt; inactive means no such curve, though single readings can be large or run the other way. This is one part of the list.

Test: Primary qHTS for Identification of Small Molecule Activators of Huntingtin-Antisense Promoter Activity; further: nearly all actives have a fitted effect of over 55% in size
Settings: HEK293 HTT-AS promoter firefly luciferase reporter (activity 0% = vehicle and -100% = no light), 24 h; series mostly up to 57.5 µM; activity change, positive = activation: at the top concentration
In short: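 HEK293 luciferase promoter-reporter cells (2,500/well) plated 24 h, then compounds added at up to 57.5 uM final for 24 h at 37 °C. Firefly luminescence by Dual-Glo, normalized to vehicle (0%) and zero RLU (-100%).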

Activity change, positive = activation, inactive:
COc1ccc(-n2cc(C(=O)NCc3ccccc3)c3ccccc3c2=O)cc1 -13.4%
N#Cc1cc(NC(=O)C(=O)O)c(Cl)c(NC(=O)C(=O)O)c1 -2.44%
COc1ccc(CN2CCN(Cc3cc(=O)oc4cc(C)ccc34)CC2)c(OC)c1OC -25.6%
Cc1cc(Cl)ccc1NC(=O)c1cc(S(=O)(=O)N2CCOCC2)cn1C -7.18%
Cc1cccc(C)c1OCC(C)N (centres undefined) -1.41%
O=C(c1ccc2c(c1)N(Cc1ccc(Cl)cc1)C(=O)c1ccccc1S2=O)N1CCOCC1 (centres undefined) -28.6%
Cc1cc(C)c2c(CC(=O)N3CCN(c4cccc(Cl)c4)CC3)coc2c1 -8.16%
CCc1cccc(NC(=O)Cn2c(=O)ccc3cc(S(=O)(=O)N4CCC(C)CC4)ccc32)c1 -32.6%
CCOc1ccccc1N1CC(c2nc3ccccc3n2CCOc2ccccc2)CC1=O (centres undefined) -47.6%
CCc1ccc(CNc2ncnc3c2nc2n3CCCC2)cc1 -26.2%
COc1cccc(N2CCN(C(=O)c3ccc(Cn4c(=O)[nH]c5cc(OC)c(OC)cc5c4=O)cc3)CC2)c1 -33.4%
CC1CCc2nc3ncn(Cc4ccccc4C#N)c(=O)c3cc2C1 (centres undefined) 10.4%
COc1ccc(C(CNC(=O)c2oc3ccc(Cl)cc3c2C)N2CCCCC2)cc1 (centres undefined) 8.11%
Cc1cc(C)c2oc(C(=O)Nc3sc4c(c3C(=O)NCc3ccco3)CCC4)cc(=O)c2c1 5.18%
C[C@@H]1CCN(C(=O)[C@H](CCCN=C(N)N)NS(=O)(=O)c2cccc3c2NC[C@H](C)C3)[C@@H](C(=O)O)C1 -3.66%
COc1ccc(-c2nc3scc(CCNS(=O)(=O)c4c(C)noc4C)n3n2)cc1 -29.5%
CN1CCN(C(=O)C(=O)Nc2c3c(nn2-c2ccc(F)cc2)CSC3)CC1 -7.19%
CSc1ccc(CCNC(=O)C2CCN(c3nc4ccccc4nc3C(F)(F)F)CC2)cc1 2.77%
O=C(Cn1c(=O)n(Cc2ccc3c(c2)OCO3)c(=O)c2oc3ccccc3c21)Nc1ccccc1 -17.9%
Cc1ccccc1CNC(=O)C1CCN(c2nnc(C)c3c(C)n(-c4ccccc4)nc23)CC1 -9.93%
CCc1ccc(-c2nc3ccc(Br)cc3c(C(=O)O)c2C)s1 -22.9%
COC(=O)c1ccc(NC(=O)c2c(NCc3ccc(C)o3)sc3c2CCCC3)cc1 -17.9%
CCn1c(C(=O)NCc2cccc(Br)c2)cc2oc3ccccc3c21 -31.6%
CCc1nnc(NC(=O)c2cc(=O)c3cc(C)c(C)cc3o2)s1 13.6%
COc1cc(-c2noc(-c3cc4cc(F)ccc4oc3=O)n2)cc(OC)c1OC -9.35%
CN1C(=O)C2(c3ccccc31)N(c1ccccc1)C(=O)CS2(=O)=O (centres undefined) -12.5%
Cc1ccc(Cn2cccc2C2=NC(C)(C)CO2)cc1 -10.3%
COc1ccccc1OC(C)C(=O)NCC1(N2CCOCC2)CCCCC1 (centres undefined) -19.5%
CC1CCN(S(=O)(=O)c2ccc3c(c2)N(CC(=O)NC(C)C)C(=O)CS3)CC1 -19.2%
Cc1ccc(OC(=O)c2cc(-c3ccc4c(c3)OCCO4)on2)c(C)c1 6.42%
CCc1nn(CCCC(=O)NCc2ccccc2Br)c(=O)c2cc3occc3n12 -7.01%
CCCCOc1ccc(-c2nonc2NC(=O)c2ccco2)cc1 -15.1%
COc1ccc(NC(=O)CCNS(=O)(=O)c2cccc3nonc23)cc1 -5.88%
CCCC(=O)N1c2ncnn2C2(CCCCC2)[C@@H]2CCCC[C@@H]21 -24.8%
Cc1ccc(OCC(=O)NCC2(N3CCN(C)CC3)CCCCC2)cc1C -11.1%
Cc1ccc(S(=O)(=O)NCCc2nnc3ccc(SCc4ccccc4C)nn23)cc1 -31.8%
CC(=O)O[C@@]12CO[C@H]1C[C@H](O)[C@@]1(C)C(=O)[C@H](O)C3=C(C)[C@@H](OC(=O)C(O)[C@@H](NC(=O)OC(C)(C)C)c4ccccc4)C[C@@](O)([C@@H](OC(=O)c4ccccc4)[C@@H]21)C3(C)C (some centres undefined) -28.6%
COc1ccc(N2CCN(C(=O)Cn3cnc4nc5c(cc4c3=O)CCCC5)CC2)cc1 26.2%
COc1ccc(/C=C\c2onc(C)c2S(=O)(=O)N2CCC(C(=O)Nc3ccccc3OC)CC2)cc1 -29.9%
COc1ccc(OC)c(NC(=O)CSc2c3c(nc4ccccc24)CCCC3)c1 -58.8%
CCOc1ccccc1NC(=O)C1CCN(S(=O)(=O)c2c(C)noc2/C=C/c2ccc(C)cc2)CC1 -6.79%
CCOc1ccc(C(=O)NCCn2cc(SCC(=O)NCCc3ccc(OC)c(OC)c3)c3ccccc32)cc1 -38.7%
COc1ccccc1OCCn1cc(C(=O)c2cccs2)c2ccccc21 -39.7%
COc1ccc(Cl)cc1NC(=O)Cn1ccn(Cc2ccc(C)cc2)c(=O)c1=O -38.2%
O=C(c1cc2c(=O)oc3ccccc3c2s1)N1CCN(c2cccc(Cl)c2)CC1 -13.4%
COc1cc(/C=C/C(N)=O)cc(OC)c1OC 3.91%
CCOC(=O)N1CCN(C(=O)CN(c2cccc(Cl)c2C)S(=O)(=O)c2ccc(C)cc2)CC1 -38.8%
O=C(Nc1ccccc1)c1cccc2c(=O)c3c([nH]c12)CCCC3 -14.1%
Cc1cccc(-n2c(SCC(N)=O)nc3c(oc4ccccc43)c2=O)c1 -12.7%
Cc1ccc(CCNC(=O)CN(c2ccc(C)cc2)S(=O)(=O)c2c(C)noc2C)cc1 -23.1%
COc1ccccc1CNc1ccc(-c2nc(C(C)C)no2)cc1[N+](=O)[O-] 3.66%
Cc1ccc(C)c(NC(=O)Cn2cc(C(=O)c3ccncc3)c(=O)c3cc(F)ccc32)c1 1.15%
CCOc1ccc(CNC(=O)c2cc3oc4ccccc4c3n2C)cc1 -25.6%
COc1ccc(NC(=O)Cn2cnc3sc(C)c(S(=O)(=O)N4CCN(C)CC4)c3c2=O)cc1OC -9.28%
Cc1cc(C)c2c(CC(=O)N(Cc3ccc(N(C)C)cc3)Cc3ccco3)coc2c1 -32.2%
O=C(CSc1nc2c(c(=O)[nH]1)CCC2)Nc1ccccc1F -1.31%
CN(C)c1ccc(CNc2nc(-c3ccco3)nn2S(=O)(=O)c2ccc3ccccc3c2)cc1 1.15%
Cc1ccccc1-c1nc(CNC(=O)Nc2ccccc2)c(C)o1 -4.67%
Cc1ccccc1OCc1ccc(-c2nc(C#N)c(NCCCN(C)C)o2)o1 -10.1%
CCOC(=O)C1CCN(C(c2ccccc2OC)c2c(O)cc(C)n(CCOC)c2=O)CC1 (centres undefined) 1.96%
COc1cccc(-c2nc(-c3ccc(-c4ccccc4)nc3OC)no2)c1 19.3%
O=C(Nc1ccc(F)cc1)[C@H](Cc1ccccc1)N1Cc2ccccc2C1=O -13.2%
CN(C(=O)C(Cl)Cl)c1ccc(OC(=O)c2ccco2)cc1 -13.5%
Cn1nnnc1SCCCNCc1cccc(OCc2ccc(Cl)cc2)c1 -21.3%
Cc1c(Cl)cccc1-n1ncc(C(=O)Nc2ccc3c(c2)OCCO3)c1C1CCN(C(=O)OC(C)(C)C)CC1 -62.9%
CCOc1ccc(-c2nc(SC(C(C)=O)C(=O)N(C)C)c3c(=O)n(C)c(=O)n(C)c3n2)cc1 (centres undefined) -1.84%
COc1ccc(-c2nn(C)c3sc(C(=O)Nc4cccc(F)c4)cc23)cc1OC -25.8%
CO[C@H]1/C=C\O[C@@]2(C)Oc3c(C)c(O)c4c(O)c(c(C=NN5CCN(C6CCCC6)CC5)c(O)c4c3C2=O)NC(=O)C(C)=CC=C[C@H](C)[C@H](O)[C@@H](C)[C@@H](O)[C@@H](C)[C@H](OC(C)=O)[C@H]1C -45.7%
Cc1ccccc1OCC(=O)OCc1cc(=O)n2ccsc2n1 -5.07%
Cc1ccc2cc3cc(C(=O)Nc4ccc(F)cc4Cl)oc3nc2c1 -15.8%
CCN(CC)S(=O)(=O)c1ccc2c(c1)N(CC(=O)N1CCN(c3cccc(C(F)(F)F)c3)CC1)C(=O)CO2 -30.4%
COCCn1c(SCC(=O)c2cc(C)ccc2C)nc2cc(C(=O)NC3CCCC3)ccc2c1=O -11.6%
Cc1cc(C)cc(NC(=O)c2cc(S(=O)(=O)N3CCCCCC3)cn2C)c1 -12.8%
Nc1ccn([C@H]2CC[C@@H](CO)O2)c(=O)n1
CCN(CC)CCN(C(=O)c1ccco1)c1nc2ccc(Cl)cc2s1 6.85%
Cc1ccc(-n2nc3c(N4CCC(C(=O)NC(C)C)CC4)nnc(C)c3c2C)cc1 -11.4%
CCC1CN(C(=O)N2CCC(C(=O)NCc3ccc(OC)cc3OC)CC2)c2cc(C)ccc2O1 (centres undefined) -31%
CCCN(CCC)C(=O)C1CCCN(S(=O)(=O)c2ccc3c(c2)oc(=O)n3C)C1 (centres undefined) -19.2%
O=C(c1ccccc1)c1ccccc1NC(=O)c1ccccc1C(=O)O -5.49%
Cc1ccc(-c2nc(CS(=O)CC(=O)N3CCN(c4ccccc4)CC3)c(C)o2)cc1 (centres undefined) -14.6%
COc1ccc(-c2noc(-c3ccc(NC4CCCC4)c([N+](=O)[O-])c3)n2)cc1 -8.09%
CCN(CC)c1cc(C)c2cc(NC(=O)/C=C/c3ccc(C)cc3)ccc2n1 -37.2%
CC(=O)c1ccc(N2CCN(C(=O)c3cc4cc5cc(C)ccc5nc4s3)CC2)cc1 4.4%
Cc1ccc(C)c(NC(=O)C2CCCN(S(=O)(=O)c3ccc4[nH]c(=O)ccc4c3)C2)c1 (centres undefined) -17.5%
Cc1ccc(C(=O)c2oc3ccccc3c2NC(=O)c2cc(-c3ccccc3)on2)cc1F -15.1%
COc1ccc(Cl)cc1NC(=O)c1cc2c(s1)-c1ccccc1OC2 4.51%
CCc1ccc(OC(C)C(=O)Nc2c(C(=O)c3ccccc3)oc3ccccc23)cc1 (centres undefined) -1.98%
COCCNC(=O)CCc1nc2cccnc2n1Cc1ccc(OC)cc1 -7.76%
Oc1c(Br)cc(Br)cc1-c1nc2ccccc2s1 -16.4%
CS(=O)(=O)N(CC(=O)NCCSc1ccccc1)c1cc(C(F)(F)F)ccc1Cl -18.3%
COc1ccc(OC)c(NC(=O)CSc2cn(CC(=O)N3CCOCC3)c3ccccc23)c1 -8.19%
COc1cccc(C2C(C(=O)Nc3ccccc3)=C(C)Nc3nc(-c4ccccc4)nn32)c1 (centres undefined) -21.5%
COc1ccc(C2C(C(N)=O)=C(C)Nc3nc(-c4ccccc4Cl)nn32)cc1 (centres undefined) -2.76%
Cc1ccc2oc(C(=O)N(Cc3ccccc3F)C3CCS(=O)(=O)C3)c(C)c2c1 (centres undefined) -36.8%
